# The supplement of paper PMC4604168 (melanoma cell lines)
# The other results are listed elsewhere or left out. Repeats are few or missing, and single values can be far off.
# Columns and labels:
# Assay in all cases: cell count relative to DMSO control; melanoma cells; higher = more viable cells
# Conditions in all cases: library dose: standard library concentration; 72 h
# G361 = system: G361
# IPC-298 = system: IPC-298
# IST-MEL1 = system: IST-MEL1
# LB2518-MEL = system: LB2518-MEL
# LOXIMVI = system: LOXIMVI
# MEL-HO = system: MEL-HO
# MZ2-MEL = system: MZ2-MEL
# MeWo = system: MeWo
# RPMI7951 = system: RPMI7951
# RVH-421 = system: RVH-421
# SkMel28 = system: SkMel28
# SkMel2 = system: SkMel2
# SkMel30 = system: SkMel30
# SkMel5 = system: SkMel5
# UACC257 = system: UACC257
# UACC62 = system: UACC62
# WM115 = system: WM115
# WM1716 = system: WM1716
# WM1745 = system: WM1745
# WM3526 = system: WM3526
# 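Note: cells treated in 1,536-well plates, then fixed and DAPI-stained, with nuclei counted from automated high-throughput microscope images.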
SMILES,cell count (G361),cell count (IPC-298),cell count (IST-MEL1),cell count (LB2518-MEL),cell count (LOXIMVI),cell count (MEL-HO),cell count (MZ2-MEL),cell count (MeWo),cell count (RPMI7951),cell count (RVH-421),cell count (SkMel28),cell count (SkMel2),cell count (SkMel30),cell count (SkMel5),cell count (UACC257),cell count (UACC62),cell count (WM115),cell count (WM1716),cell count (WM1745),cell count (WM3526)
"O=C(Nc1ccccc1)c1cc([N+](=O)[O-])ccc1Cl + Cc1cc(SCc2sc(-c3ccc(C(F)(F)F)c(F)c3)nc2C)ccc1OCC(=O)O [GW0742] (first compound 10 µM, partner dose 10 µM)",81.6%,96.1%,99.6%,65%,51.5%,83.7%,80.3%,75.6%,40.8%,85.9%,91.6%,91.1%,85%,80.3%,82.5%,86%,90.7%,122%,67.6%,98.7%
"O=S(=O)(c1ccccc1)N(CC(F)(F)F)c1ccc(C(O)(C(F)(F)F)C(F)(F)F)cc1 + C/C(O)=C(\C#N)C(=O)Nc1cc(Br)ccc1Br [LFM-A13] (first compound 7 µM, partner dose 10 µM)",73.5%,89.6%,93.1%,113%,104%,85.2%,106%,85.6%,84.1%,72%,71.3%,95.2%,80.7%,77%,90.8%,78%,88.3%,112%,102%,77.8%
"CO[C@@H]1[C@H](N(C)C(=O)c2ccccc2)C[C@H]2O[C@]1(C)n1c3ccccc3c3c4c(c5c6ccccc6n2c5c31)C(=O)NC4 [Midostaurin] + C/C(O)=C(\C#N)C(=O)Nc1cc(Br)ccc1Br [LFM-A13] (first compound 0.4 µM, partner dose 10 µM)",58.4%,57.3%,68.6%,49%,67.9%,72.7%,44.6%,50.9%,44.6%,96.2%,51.9%,56.7%,63.5%,54.2%,62.9%,66.8%,38%,31.3%,32.6%,55.4%
"Cc1cc(N2CCOCC2)cc2[nH]c(-c3c(NC[C@@H](O)c4cccc(Cl)c4)cc[nH]c3=O)nc12 + O=C(Oc1ccc([N+](=O)[O-])cc1)N1CCC(C(O)(c2ccc3c(c2)OCO3)c2ccc3c(c2)OCO3)CC1 [JZL184] (first compound 1 µM, partner dose 5 µM)",71.6%,89.1%,90%,108%,75.1%,92%,98.5%,62.3%,70.2%,83.8%,106%,99.8%,86.7%,65.3%,99.9%,85.5%,106%,92.3%,46.1%,67.7%
"Cc1cc(SCc2sc(-c3ccc(C(F)(F)F)c(F)c3)nc2C)ccc1OCC(=O)O + Oc1nc(-c2ccc(C(F)(F)F)cc2)nc2c1CSCC2 [XAV939] (first compound 10 µM, partner dose 10 µM)",76.1%,87.6%,83.2%,78%,79.2%,81.5%,95.1%,76.8%,87%,81.1%,70.6%,93.2%,98.2%,89.9%,73.4%,84.2%,74.9%,91.3%,62.8%,94.8%
"Cc1cc(SCc2sc(-c3ccc(C(F)(F)F)c(F)c3)nc2C)ccc1OCC(=O)O + Cc1cc([N+](=O)[O-])ccc1NS(=O)(=O)c1cc(Cl)ccc1Cl [FH535] (first compound 10 µM, partner dose 5 µM)",58.4%,58.4%,58.4%,99.8%,155%,58%,77.1%,91%,101%,79.3%,80.3%,86.6%,113%,66%,80.1%,133%,96.2%,89.9%,121%,92.7%
"N#CC[C@H](C1CCCC1)n1cc(-c2ncnc3[nH]ccc23)cn1 [ruxolitinib] + Cn1cc(C2=C(c3cn(C4CCN(Cc5ccccn5)CC4)c4ccccc34)C(=O)NC2=O)c2ccccc21 [Enzastaurin] (first compound 5 µM, partner dose 4 µM)",80.3%,104%,89.6%,104%,170%,90.7%,101%,90.9%,93.8%,388%,116%,101%,128%,103%,69.6%,93.2%,129%,53.7%,81.6%,98.8%
"NC1(c2ccc(-c3nc4ccn5c(=O)[nH]nc5c4cc3-c3ccccc3)cc2)CCC1 + C[As](C)SC[C@H](NC(=O)CC[C@H](N)C(=O)O)C(=O)NCC(=O)O [Darinaparsin] (first compound 2 µM, partner dose 2 µM)",90.1%,85%,73.5%,75.7%,73.8%,67.1%,78.4%,53.4%,59.3%,55.1%,54.2%,63.4%,67.4%,43.1%,81.8%,55.4%,81.3%,57.9%,82.7%,51.5%
"CN(C)S(=O)(=O)c1ccc2c(c1)/C(=C/c1cc3c([nH]1)CCCC3)C(=O)N2 + Cc1cc(SCc2sc(-c3ccc(C(F)(F)F)c(F)c3)nc2C)ccc1OCC(=O)O [GW0742] (first compound 2 µM, partner dose 10 µM)",63.3%,59.1%,83.1%,60.8%,118%,91.8%,79.6%,78.8%,52.8%,91.1%,45.8%,73.3%,78.2%,69.2%,78.7%,81.7%,63.7%,62.8%,49.3%,66.7%
"Cc1cn(-c2cc(NC(=O)c3ccc(C)c(Nc4nccc(-c5cccnc5)n4)c3)cc(C(F)(F)F)c2)cn1 [nilotinib] + Cn1cc(C2=C(c3cn(C4CCN(Cc5ccccn5)CC4)c4ccccc34)C(=O)NC2=O)c2ccccc21 [Enzastaurin] (first compound 1 µM, partner dose 4 µM)",69%,90.8%,74.9%,52.2%,151%,80.2%,129%,85.5%,56.6%,50.1%,85.1%,53%,92.8%,93.7%,114%,64.9%,89.6%,63.3%,37.6%,81.3%
"NC(=O)Nc1cc(-c2cccc(F)c2)sc1C(=O)N[C@H]1CCCNC1 + Cc1cc(SCc2sc(-c3ccc(C(F)(F)F)c(F)c3)nc2C)ccc1OCC(=O)O [GW0742] (first compound 0.1 µM, partner dose 10 µM)",110%,101%,91.3%,53.3%,112%,99%,91.8%,82.3%,45.3%,128%,40.4%,88.9%,79.6%,82.8%,96.1%,72.6%,71.8%,73.5%,66.7%,68.8%
"C[C@@H](N)c1ccc(C(=O)Nc2ccnc3[nH]ccc23)cc1 + C[C@]12O[C@H](C[C@]1(O)CO)n1c3ccccc3c3c4c(c5c6ccccc6n2c5c31)CNC4=O [Lestaurtinib] (first compound 2 µM, partner dose 0.02 µM)",59.1%,100%,92.6%,88.9%,61.5%,71.8%,64.2%,80.4%,51.6%,40.4%,53.9%,90.1%,91.9%,56.4%,88.4%,94.6%,91.3%,70.7%,47.2%,65.9%
"CCN(CC)CCNC(=O)c1c(C)[nH]c(/C=C2\C(=O)Nc3ccc(F)cc32)c1C [sunitinib] + N.N.[Cl][Pt][Cl] [cisplatin] (first compound 2 µM, partner dose 8 µM)",83.2%,91.6%,98.1%,65.9%,121%,90.8%,122%,56.5%,92.2%,90.4%,88.1%,112%,57.1%,60.1%,92.1%,48.7%,47.9%,119%,48.8%,58.2%
"COc1cc2c(Oc3ccc4[nH]c(C)cc4c3F)ncnc2cc1OCCCN1CCCC1 [cediranib] + O=C(Oc1ccc([N+](=O)[O-])cc1)N1CCC(C(O)(c2ccc3c(c2)OCO3)c2ccc3c(c2)OCO3)CC1 [JZL184] (first compound 2 µM, partner dose 5 µM)",103%,110%,108%,93.1%,83.1%,106%,77%,97.1%,75.9%,92.4%,100%,104%,78.5%,94.3%,85.7%,82.9%,102%,86.8%,68.2%,68.5%
"Cc1cc(Nc2cc(N3CCN(C)CC3)nc(/C=C/c3ccccc3)n2)n[nH]1 + C[As](C)SC[C@H](NC(=O)CC[C@H](N)C(=O)O)C(=O)NCC(=O)O [Darinaparsin] (first compound 0.2 µM, partner dose 2 µM)",67.9%,75.2%,91.5%,63.6%,70.6%,76.1%,83.9%,62.1%,62.6%,67.6%,59%,68.5%,72.2%,41.1%,82.9%,74%,45.9%,60.8%,85.4%,49.3%
"CCN(CC)CCCCNc1ncc2cc(-c3cc(OC)cc(OC)c3)c(NC(=O)NC(C)(C)C)nc2n1 + O=C(Oc1ccc([N+](=O)[O-])cc1)N1CCC(C(O)(c2ccc3c(c2)OCO3)c2ccc3c(c2)OCO3)CC1 [JZL184] (first compound 0.5 µM, partner dose 5 µM)",90.9%,106%,106%,121%,83%,104%,104%,86.2%,106%,116%,103%,86.4%,86.6%,74.1%,107%,91.6%,106%,94.7%,79.3%,78.1%
"NC(=O)c1ccc(N(C(N)=O)c2c(F)cccc2F)nc1-c1ccc(F)cc1F + C[C@]12O[C@H](C[C@]1(O)CO)n1c3ccccc3c3c4c(c5c6ccccc6n2c5c31)CNC4=O [Lestaurtinib] (first compound 2 µM, partner dose 0.02 µM)",71.1%,81.6%,127%,85.8%,106%,79%,106%,69.6%,121%,97.8%,68.5%,96.4%,72%,56.2%,91.3%,67.3%,66.5%,93.6%,77.9%,63.5%
